{
  "source": "PubChem BioAssay AID1347165",
  "about": "(National Center for Advancing Translational Sciences (NCATS), 2019)",
  "note": "Where “and” joins values, the source holds several entries; their conditions need not be identical. Identical values can stand only once. Screen size: about 220,000 compounds; about 5,700 (2.6%) were called active. This list was built around the results that the source calls inconclusive (neither active nor inactive); the mix of calls is not that of the screen. Calls follow the shape of the dose curve; as a rule, active = well fitted inhibition curve with a large enough effect; inconclusive = small, poorly fitted or top-dose-only effect; inactive = no such curve, though single readings can be large or run the other way. Potencies beside an inconclusive call are fits to weak or partial responses and may not hold up.",
  "data": [
    {"target": "Lysine-specific demethylase 5B (Homo sapiens) (UniProt Q9UGL1)", "sequence (Q9UGL1 whole entry, looked up)": "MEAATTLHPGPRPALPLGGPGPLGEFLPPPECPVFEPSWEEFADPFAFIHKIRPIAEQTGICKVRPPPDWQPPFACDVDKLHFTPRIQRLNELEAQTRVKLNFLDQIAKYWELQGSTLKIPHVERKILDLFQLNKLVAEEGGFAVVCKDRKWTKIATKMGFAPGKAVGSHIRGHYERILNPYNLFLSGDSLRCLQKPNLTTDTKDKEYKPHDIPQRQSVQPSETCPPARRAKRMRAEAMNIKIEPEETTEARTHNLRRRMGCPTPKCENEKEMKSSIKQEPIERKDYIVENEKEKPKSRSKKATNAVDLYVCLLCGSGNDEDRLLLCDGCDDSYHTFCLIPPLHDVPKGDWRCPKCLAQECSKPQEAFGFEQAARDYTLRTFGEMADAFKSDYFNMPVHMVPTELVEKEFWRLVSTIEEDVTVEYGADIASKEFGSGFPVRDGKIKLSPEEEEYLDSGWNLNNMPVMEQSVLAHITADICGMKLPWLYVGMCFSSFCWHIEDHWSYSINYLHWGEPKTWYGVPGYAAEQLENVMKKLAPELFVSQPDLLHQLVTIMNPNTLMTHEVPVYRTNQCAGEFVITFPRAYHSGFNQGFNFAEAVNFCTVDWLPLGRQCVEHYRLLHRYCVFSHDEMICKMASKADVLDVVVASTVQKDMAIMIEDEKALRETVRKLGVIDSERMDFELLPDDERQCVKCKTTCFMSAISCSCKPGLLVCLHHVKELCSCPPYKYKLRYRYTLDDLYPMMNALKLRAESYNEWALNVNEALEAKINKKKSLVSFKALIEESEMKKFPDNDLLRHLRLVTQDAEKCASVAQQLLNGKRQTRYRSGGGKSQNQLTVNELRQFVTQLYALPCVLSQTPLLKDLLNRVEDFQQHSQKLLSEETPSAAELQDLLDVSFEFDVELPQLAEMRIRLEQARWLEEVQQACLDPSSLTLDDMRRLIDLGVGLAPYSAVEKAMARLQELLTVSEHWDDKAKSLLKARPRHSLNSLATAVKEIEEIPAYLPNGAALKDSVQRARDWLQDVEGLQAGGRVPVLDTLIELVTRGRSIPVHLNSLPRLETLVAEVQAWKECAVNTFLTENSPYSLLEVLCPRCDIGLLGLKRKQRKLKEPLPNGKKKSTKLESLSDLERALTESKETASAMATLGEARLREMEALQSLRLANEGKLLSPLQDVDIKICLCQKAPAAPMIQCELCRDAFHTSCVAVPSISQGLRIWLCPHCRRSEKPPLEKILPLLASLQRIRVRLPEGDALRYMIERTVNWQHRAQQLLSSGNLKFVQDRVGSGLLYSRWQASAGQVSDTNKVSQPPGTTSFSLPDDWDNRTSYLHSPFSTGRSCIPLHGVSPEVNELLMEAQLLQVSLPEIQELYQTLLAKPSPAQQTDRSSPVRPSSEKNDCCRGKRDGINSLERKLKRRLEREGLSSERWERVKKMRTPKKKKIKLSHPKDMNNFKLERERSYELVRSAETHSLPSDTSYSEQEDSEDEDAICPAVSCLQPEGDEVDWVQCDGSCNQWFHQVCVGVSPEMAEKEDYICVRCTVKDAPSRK", "test": "Primary screen for KDM5B Histone Demethylases FDH-coupled qHTS; also: nearly all actives have a fitted effect of over 70% in size; also: potency is read from the fitted curve at half-maximal effect; tags tell the direction and shape of the fitted curve; as to activity change, negative = inhibition: 0% is about no effect", "settings": "FDH-coupled NADH fluorescence (FDH is formaldehyde dehydrogenase); activity change, negative = inhibition: at 57.7 µM (top of the series) unless noted", "procedure,_shortened": "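Compound dilutions met 200 nM (final) KDM5BΔAP for 10 min at room temperature before substrate addition. The substrate mix held 12.5 µM H3K4me3 with cofactors 25 µM α-ketoglutarate and 50 µM Fe²⁺. NADH signal gain over 30 min defined activity.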", "values": [
      {"molecule": "O=C(N1CCCC1)C1(CCO)CC12CCOCC2", "note": "(stereo not drawn)", "activity change, negative = inhibition": "inactive: 11.3%"},
      {"molecule": "CN(C)C(=O)c1ccc(NCC(=O)N2N=C(c3cc4ccccc4o3)CC2c2ccco2)cc1", "note": "(stereo not drawn)", "Potency": "inconclusive: 28.2 µM [inhibitor, single point]"},
      {"molecule": "O=C(NCCn1cccc1-c1nc(-c2ccccc2)no1)c1ccc(F)c(Cl)c1", "Potency": "inconclusive: 35.5 µM [inhibitor, partial curve, poor fit]"},
      {"molecule": "O=C(NCc1ccccc1Cl)c1cnc(N2CCCCC2)c2ccccc12", "Potency": "inconclusive: 39.8 µM [inhibitor, partial curve, poor fit]"},
      {"molecule": "COc1ccc(-c2cc3ccc(O)c(CN4CCN(CCO)CC4)c3oc2=O)cc1OC", "Potency": "inconclusive: 28.2 µM [inhibitor, partial curve, poor fit]"},
      {"molecule": "Cc1cccn2c(Nc3ccc4c(c3)OCCO4)c(-c3ccc(Br)o3)nc12", "Potency": "inconclusive: 25.1 µM [inhibitor, partial curve, poor fit]"},
      {"molecule": "O=C1CCNCCCOCCN1", "Potency": "inconclusive: 22.4 µM [inhibitor, single point]"},
      {"molecule": "Cc1ccc(C(=O)c2ccccc2C(=O)OCc2ccccc2C#N)cc1", "activity change, negative = inhibition": "inactive: -0.989%"},
      {"molecule": "CC(C)c1noc(C(C)Sc2nc(-c3ccco3)nc3ccccc23)n1", "note": "(stereo not drawn)", "Potency": "inconclusive: 28.2 µM [inhibitor, single point]"},
      {"molecule": "Cc1cc(C)cc(C(=O)NC2CCN(c3cc(-c4cccs4)[nH]n3)C2)c1", "note": "(stereo not drawn)", "Potency": "inconclusive: 5.62 µM [inhibitor, partial curve, poor fit]"},
      {"molecule": "COc1ccc(NC(=O)CSc2nc(-c3ccc(OC)cc3)cc(=O)[nH]2)cc1", "Potency": "inconclusive: 25.1 µM [inhibitor, single point]"},
      {"molecule": "CCOC(=O)c1cc(S(=O)(=O)Nc2ccc(OC(F)(F)F)cc2)[nH]n1", "Potency": "inconclusive: 15.8 µM [inhibitor, partial curve, poor fit]"},
      {"molecule": "O=C(NCc1ccc(F)cc1)c1ccc2nccn2c1", "Potency": "active: 112 µM and active: 28.2 µM"},
      {"molecule": "CN1c2cc(C(=O)Nc3ccc(Cl)c(Cl)c3)ccc2C(=O)N2CCCCCC21", "note": "(stereo not drawn)", "Potency": "inconclusive: 31.6 µM [inhibitor, partial curve, poor fit]"},
      {"molecule": "CN(C)c1ccc(/C=N/NC(=O)CCCCCNC(=O)c2ccccc2)cc1", "Potency": "inconclusive: 25.1 µM [inhibitor, partial curve, poor fit]"},
      {"molecule": "O=C(C1CC1)N1CCC2(CC1)NC(=O)N(c1cccc(Cl)c1)N2", "Potency": "inconclusive: 20 µM [inhibitor, partial curve]"},
      {"molecule": "COc1ccc(C(=O)Nc2ccc(C(=O)NC(C)(C)C)cc2)cc1", "activity change, negative = inhibition": "inactive: 3.7%"},
      {"molecule": "COCc1cc(=O)n(CC(=O)Nc2ccc(C)c(C)c2)c(N2CCOCC2)n1", "Potency": "inconclusive: 17.8 µM [inhibitor, partial curve, poor fit]"},
      {"molecule": "COc1cc(OC)c(NC(=O)c2cc3c(s2)-c2ccc(Cl)cc2SC3)cc1Cl", "Potency": "inconclusive: 31.6 µM [inhibitor, partial curve, poor fit]"},
      {"molecule": "O=C(NCC1CCCN(C(=O)c2ccc3[nH]ccc3c2)C1)c1ccc(-c2ccccc2)cc1", "note": "(stereo not drawn)", "Potency": "inconclusive: 11.2 µM [inhibitor, partial curve]"},
      {"molecule": "CCOc1cccc(-c2noc(-c3nnn4c3COC(c3cccc(OC)c3)C4)n2)c1", "note": "(stereo not drawn)", "Potency": "active: 25.1 µM"},
      {"molecule": "CC(C)c1nnc(NC(=O)c2cc(=O)c3ccccc3o2)s1", "activity change, negative = inhibition": "inactive: 1.53%"},
      {"molecule": "CC(=O)Nc1ccc2ncnc(N3CCCC3)c2c1", "Potency": "inconclusive: 25.1 µM [inhibitor, partial curve]"},
      {"molecule": "Cc1cccc(NC(=O)CSc2cn(CC(=O)N3CCCC3)c3ccccc23)c1C", "activity change, negative = inhibition": "inconclusive: -52.8% [inhibitor]"},
      {"molecule": "COc1cccc(NC(=O)c2nc(S(C)(=O)=O)ncc2Cl)c1", "Potency": "inconclusive: 20 µM [inhibitor, partial curve, poor fit]"},
      {"molecule": "Cc1oc(-c2nc(C#N)c(NCCCN(C)C)o2)cc1S(=O)(=O)N1CCCCCC1", "Potency": "inconclusive: 25.1 µM [inhibitor, partial curve, poor fit]"},
      {"molecule": "Cc1ccncc1C(=O)N1CCOc2c(O)cc(-c3ccccc3C)cc2C1", "activity change, negative = inhibition": "inactive: -6.16%"},
      {"molecule": "COc1ccc(-c2cc(N3CCCC(NC(=O)c4cccc(C#N)c4)C3)n[nH]2)cc1", "note": "(stereo not drawn)", "Potency": "inconclusive: 17.8 µM [inhibitor, partial curve, poor fit]"},
      {"molecule": "CCc1ccc(-c2cc(C)no2)cc1S(=O)(=O)Nc1ccc(Cl)cn1", "Potency": "inconclusive: 35.5 µM [inhibitor, single point]"},
      {"molecule": "COc1ccc(-c2nc(CS(=O)CC(=O)N3CCOCC3)c(C)o2)cc1", "note": "(stereo not drawn)", "Potency": "inconclusive: 39.8 µM [inhibitor, single point]"},
      {"molecule": "O=C(/C(=C\\c1ccc(-c2ccccc2Cl)o1)c1nc2ccccc2o1)c1ccccc1", "activity change, negative = inhibition": "inactive: -8.31%"},
      {"molecule": "Cc1ccc(Nc2ccc3ccccc3c2)cc1", "Potency": "inconclusive: 22.4 µM [inhibitor, partial curve, poor fit]"},
      {"molecule": "COc1ccc(NC(=O)CN(C)S(=O)(=O)c2ccc(C(=O)N3CCOCC3)s2)cc1", "Potency": "inconclusive: 31.6 µM [inhibitor, single point]"},
      {"molecule": "CC1(C)CC(=O)c2cnc(N3CCc4ccccc43)nc2C1", "Potency": "inconclusive: 35.5 µM [inhibitor, single point]"},
      {"molecule": "O=C(NCc1cccnc1)C(=O)C1C(=O)Nc2ccccc21", "note": "(stereo not drawn)", "Potency": "inconclusive: 25.1 µM [inhibitor, partial curve, poor fit]"},
      {"molecule": "COc1cccc(N2C(=O)C(CC(=O)Nc3ccc(F)cc3)N(CCC3=CCCCC3)C2=O)c1", "note": "(stereo not drawn)", "Potency": "inconclusive: 15.8 µM [inhibitor, partial curve, poor fit]"},
      {"molecule": "COc1cccc(NC(=O)CN2C(=O)COc3ccc(S(=O)(=O)N4CCCCCC4)cc32)c1", "Potency": "inconclusive: 14.1 µM [inhibitor, partial curve, poor fit]"},
      {"molecule": "COc1ccc(Cl)cc1-c1ccc2c(c1)C(=O)N1CCN(C(C)=O)C[C@@H]1C(=O)N2", "Potency": "inconclusive: 35.5 µM [inhibitor, single point]"},
      {"molecule": "COc1ccc(CNC(=O)c2cc3ccccc3[nH]2)cc1", "Potency": "inconclusive: 28.2 µM [inhibitor, single point]"},
      {"molecule": "CN(C)c1ccc(-c2nnc([C@H]3CCN(C(=O)c4ccccn4)C3)o2)cc1", "Potency": "inconclusive: 39.8 µM [inhibitor, partial curve, poor fit]"},
      {"molecule": "CC(C)CCNC(=O)CCNC(=O)c1ccccc1", "activity change, negative = inhibition": "inactive: 2.79%"},
      {"molecule": "CC(C)(C)c1ccccc1NC(=O)c1cnc2ccccc2n1", "activity change, negative = inhibition": "inactive: -19.6%"},
      {"molecule": "N#CC1CCN(C(=O)C2CCCN(c3nc4ncccc4o3)C2)CC1", "note": "(stereo not drawn)", "Potency": "active: 31.6 µM"},
      {"molecule": "CCc1cc2c(=O)c(-c3nc4ccccc4n3C)c(C)oc2c(CN2CCCCC2)c1O", "Potency": "inconclusive: 31.6 µM [inhibitor, partial curve, poor fit]"},
      {"molecule": "COc1ccccc1Cn1c(CNS(=O)(=O)c2ccc(CC(C)C)cc2)nc2cccnc21", "Potency": "inconclusive: 39.8 µM [inhibitor, single point]"},
      {"molecule": "CCOc1ccc(-c2c(C)nn3c(-c4ccccc4)c(C(=O)NCCOC)cnc23)cc1OCC", "activity change, negative = inhibition": "inactive: -16.8%"},
      {"molecule": "Cc1ccc(C2Cn3nnc(-c4noc(-c5nn(C)c6ccccc56)n4)c3CO2)cc1", "note": "(stereo not drawn)", "Potency": "inconclusive: 28.2 µM [inhibitor, partial curve, poor fit]"},
      {"molecule": "Cc1cccc(NC(=O)C(C#N)C(=O)CC(C)(C)C)c1", "note": "(stereo not drawn)", "Potency": "inconclusive: 39.8 µM [inhibitor, single point]"},
      {"molecule": "Cc1cccc(OCC2(CNC3CCOCC3)C[C@@H](O)[C@@H](O)C2)n1", "note": "(stereo partly drawn)", "Potency": "inconclusive: 28.2 µM [inhibitor, single point]"},
      {"molecule": "CCc1cc(=O)n(Cc2cccnc2)c(N2CCOCC2)n1", "activity change, negative = inhibition": "inactive: -14.6%"},
      {"molecule": "COc1ccc(OC2CCN(C(C)=O)CC2)c(C(=O)NCc2csc(C(C)C)n2)c1", "Potency": "inconclusive: 31.6 µM [inhibitor, partial curve, poor fit]"},
      {"molecule": "COC(=O)c1ccc(NC(=O)N2CCC(CN3CCc4ccccc4C3)CC2)cc1", "Potency": "inconclusive: 28.2 µM [inhibitor, partial curve, poor fit]"},
      {"molecule": "COc1cccc(-c2nc(-c3nnn4c3COC(c3ccc(Cl)cc3)C4)no2)c1OC", "note": "(stereo not drawn)", "Potency": "active: 25.1 µM"},
      {"molecule": "COc1ccccc1C1C(C(=O)OCc2ccccc2)=C(C)NC2=C1C(=O)CCC2", "note": "(stereo not drawn)", "Potency": "inconclusive: 14.1 µM [inhibitor, partial curve, poor fit]"},
      {"molecule": "COc1ccc(-c2cc3nc(C)c(CCC(=O)Nc4ccc(F)cc4F)c(C)n3n2)c(OC)c1", "Potency": "inconclusive: 1.78 µM [inhibitor, partial curve, poor fit]"},
      {"molecule": "CC[C@H]1CN(C(=O)c2ccccc2)CC[C@H]1CC(=O)N1CCOCC1", "activity change, negative = inhibition": "inactive: 13.2% [at 86.2 µM]"},
      {"molecule": "Brc1ccc(-c2noc(-c3ccccc3-c3ccccc3)n2)cc1", "Potency": "inconclusive: 1.78 µM [inhibitor, partial curve, poor fit]"},
      {"molecule": "Cc1ccccc1C(=O)Nc1cccc(-c2cn3cccnc3n2)c1", "Potency": "inconclusive: 3.55 µM [inhibitor, full curve, poor fit]"},
      {"molecule": "CN(C(=O)Cc1c(C(=O)O)n(C)c2ccccc12)c1ccc(Cl)cc1", "Potency": "inconclusive: 20 µM [inhibitor, partial curve, poor fit]"},
      {"molecule": "CN(C)c1ccc(-c2nnnn2[C@H]2CO[C@H]3[C@@H]2OC[C@@H]3NC(=O)CC2(CC(=O)O)CCCC2)cc1", "Potency": "inconclusive: 14.1 µM [inhibitor, single point]"},
      {"molecule": "COCc1ncc(C)n1CCNC(=O)c1cc(-c2ccc(C)c(C)c2)n[nH]1", "activity change, negative = inhibition": "inactive: 33.3%"},
      {"molecule": "CN1CCC(N(C)CCN(C)C(=O)Nc2ccccc2C(F)(F)F)CC1", "activity change, negative = inhibition": "inactive: -12.8%"},
      {"molecule": "Nc1nccnc1C(=O)NCc1ncc(-c2ccccc2)o1", "Potency": "inconclusive: 28.2 µM [inhibitor, partial curve, poor fit]"}
    ]}
  ]
}
